US20220064329A1 (Novo Nordisk, published 2022)
Blank lines part the entries; values can stand above or below the binder they belong to.

Columns and labels:
[1] = target: T1, cFVIIa-chimera (chimeric cynomolgus monkey FVIIa construct) (human; cynomolgus monkey); assay: SPR 37 C, cFVIIa-chimera captured via antibody 4F9 on anti-murine IgG, antibody injected; Buffer 2 (pH 6.0, 5 uM CaCl2)
T1 construct: range 89-406

[2] = target: T1, cFVIIa-chimera (chimeric cynomolgus …); assay: SPR 37 C, cFVIIa-chimera captured via antibody 4F9 on anti-murine IgG, antibody injected; Buffer 1 (pH 7.4, 5 mM CaCl2)

Kd [1]: 0.652 nM
Kd [2]: 0.469 nM
B1: mAb0077(OA) (other)
heavy: DVQLQESGPGLVEPSQSLSLTCTVTGYSITSDCAWSWIRQFPGNKLEWMGYINYSGSTNYNPSLKSRISVTRDTSKNQFFLRLSSVTAEDTATYYCTRSVNYYGNSFAVGYWGQGTSVTVSSASTKGPSVFPLAPCSRSTSESTAALGCLVKDYFPEPVTVSWNSGALTSGVHTFPAVLQSSGLYSLSSVVTVPSSSLGTKTYTCNVDHKPSNTKVDKRV[no letters for human IgG4 Fc with S228P (EU numbers)]
light: DIVMTQSPATLSVTAGDRVSLSCRASQGISDYLHWYQQKSHESPRLLIKYTSQPVSGIPSRFSGSGSGSEFTLSINSVEPEDVGVYYCQNGHSFPLTFGAGTKLELKRTVAAPSVFIFPPSDEQLKSGTASVVCLLNNFYPREAKVQWKVDNALQSGNSQESVTEQDSKDSTYSLSSTLTLSKADYEKHKVYACEVTHQGLSSPVTKSFNRGEC
chain: VESKYGPPCPPCPAPEFLGGPSVFLFPPKPKDTLMISRTPEVTCVVVDVSQEDPEVQFNWYVDGVEVHNAKTKPREEQFNSTYRVVSVLTVLHQDWLNGKEYKCKVSNKGLPSSIEKTISKAKGQPREPQVYTLPPSQEEMTKNQVSLTCLVKGFYPSDIAVEWESNGQPENNYKTTPPVLDSDGSFLLYSKLTVDKSRWQEGNVFSCSVMHEALHNHYTQKSLSLSLGK
notes: one-armed (monovalent) antibody, murine VL/VH, constant domain type E (Duobody): heavy chain, truncated heavy chain (trHC) and one light chain; also called monovalent 11F2; one-armed 11F2

Kd [1]: 1.6 nM
Kd [2]: 1.02 nM
B2: mAb0842(OA) (other)
heavy: QVQLQESGPGLVKPSQTLSLTCTVSGYSISSDSAWSWIRQPPGKGLEWIGYIQYSGSTNYNPSLKSRVTISRDTSKNQFSLKLSSVTAADTAVYYCARSVNYYGNSFAVGYWGQGTLVTVSSASTKGPSVFPLAPCSRSTSESTAALGCLVKDYFPEPVTVSWNSGALTSGVHTFPAVLQSSGLYSLSSVVTVPSSSLGTKTYTCNVDHKPSNTKVDKRVESKYGPPCPPCPAPEFLGGPSVFLFPPKPKDTLMISRTPEVTCVVVDVSQEDPEVQFNWYVDGVEVHNAKTKPREEQFNSTYRVVSVLTVLHQDWLNGKEYKCKVSNKGLPSSIEKTISKAKGQPREPQVYTLPPSQEEMTKNQVSLSCAVKGFYPSDIAVEWESNGQPENNYKTTPPVLDSDGSFFLVSRLTVDKSRWQEGNVFSCSVMHEALHNHYTQKSLSLSLGK
light: EIVLTQSPATLSLSPGERATLSCRASQGISDYLHWYQQKPGEAPRLLIKYTSQPATGIPARFSGSGSGTDFTLTISSLEPEDFAVYYCQNGHSFPLTFGQGTKLEIKRTVAAPSVFIFPPSDEQLKSGTASVVCLLNNFYPREAKVQWKVDNALQSGNSQESVTEQDSKDSTYSLSSTLTLSKADYEKHKVYACEVTHQGLSSPVTKSFNRGEC
chain: [no letters for human IgG4 Fc with S228P T366W (EU numbers)]
notes: one-armed antibody, constant domain type F (knob-in-hole): heavy chain, truncated heavy chain (trHC) and one light chain; also called monovalent humanized 11F2
